No constants are given. Whether binding was seen depends on the method and setting. Some entries that bind do so weakly or less than the wild type.
T1: Csm2-KRRR (pGBD csm2-K189A, R190A, R191A, R192A) (S. cerevisiae) (UniProt P40465)
T1 sequence: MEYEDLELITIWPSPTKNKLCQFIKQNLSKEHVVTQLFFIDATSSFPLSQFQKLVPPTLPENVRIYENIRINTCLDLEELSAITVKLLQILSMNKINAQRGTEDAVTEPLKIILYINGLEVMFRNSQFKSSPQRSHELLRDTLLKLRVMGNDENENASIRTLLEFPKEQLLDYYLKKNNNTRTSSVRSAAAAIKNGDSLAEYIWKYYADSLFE

T2: Psy3 (pGBD Psy3) (S. cerevisiae) (UniProt Q12318)
T2 sequence: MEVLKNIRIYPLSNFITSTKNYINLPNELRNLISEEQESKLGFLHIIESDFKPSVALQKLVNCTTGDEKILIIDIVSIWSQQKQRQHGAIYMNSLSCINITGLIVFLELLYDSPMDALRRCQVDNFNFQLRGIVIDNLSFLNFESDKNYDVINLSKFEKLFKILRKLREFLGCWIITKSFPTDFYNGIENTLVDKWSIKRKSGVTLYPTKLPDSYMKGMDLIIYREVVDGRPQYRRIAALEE

T3: Psy3-F15A (pGBD psy3-F15A) (S. cerevisiae) (UniProt Q12318)
T3 sequence: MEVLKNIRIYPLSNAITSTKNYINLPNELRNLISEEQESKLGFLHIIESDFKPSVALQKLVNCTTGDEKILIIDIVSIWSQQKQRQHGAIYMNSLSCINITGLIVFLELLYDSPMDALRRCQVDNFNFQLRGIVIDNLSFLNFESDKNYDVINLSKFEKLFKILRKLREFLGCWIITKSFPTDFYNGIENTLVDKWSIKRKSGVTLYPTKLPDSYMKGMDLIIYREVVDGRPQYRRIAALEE

T4: Psy3-S18A (pGBD psy3-S18A) (S. cerevisiae) (UniProt Q12318)
T4 sequence: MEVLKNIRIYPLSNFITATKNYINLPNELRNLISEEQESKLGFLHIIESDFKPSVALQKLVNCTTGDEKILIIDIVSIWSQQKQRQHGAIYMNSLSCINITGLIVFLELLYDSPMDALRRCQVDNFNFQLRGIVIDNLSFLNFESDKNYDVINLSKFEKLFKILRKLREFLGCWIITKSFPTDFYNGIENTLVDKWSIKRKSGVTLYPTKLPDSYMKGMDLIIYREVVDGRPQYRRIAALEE

T5: Psy3-T17A (pGBD psy3-T17A) (S. cerevisiae) (UniProt Q12318)
T5 sequence: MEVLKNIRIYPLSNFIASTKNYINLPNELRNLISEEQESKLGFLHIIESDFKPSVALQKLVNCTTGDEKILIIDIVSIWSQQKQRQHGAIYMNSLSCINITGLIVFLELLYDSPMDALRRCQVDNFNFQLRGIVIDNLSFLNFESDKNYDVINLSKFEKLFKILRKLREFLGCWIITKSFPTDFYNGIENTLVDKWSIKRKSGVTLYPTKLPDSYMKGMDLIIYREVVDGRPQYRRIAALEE

T6: Rad55 (pGBD Rad55) (S. cerevisiae) (UniProt P38953)
T6 sequence: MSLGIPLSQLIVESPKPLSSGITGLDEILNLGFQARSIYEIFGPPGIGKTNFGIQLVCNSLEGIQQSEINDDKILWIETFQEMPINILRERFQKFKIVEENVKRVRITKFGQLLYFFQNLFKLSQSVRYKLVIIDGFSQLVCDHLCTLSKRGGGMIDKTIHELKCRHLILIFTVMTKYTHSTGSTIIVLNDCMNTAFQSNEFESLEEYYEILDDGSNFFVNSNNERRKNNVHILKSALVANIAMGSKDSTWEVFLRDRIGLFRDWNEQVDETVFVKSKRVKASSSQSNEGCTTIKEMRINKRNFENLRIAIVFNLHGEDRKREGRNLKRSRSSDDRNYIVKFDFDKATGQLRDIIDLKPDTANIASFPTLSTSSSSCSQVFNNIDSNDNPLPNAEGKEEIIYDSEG


Columns and labels:
Assay in all cases: two-hybrid; GAL4 DNA-binding domain (pGBD) and GAL4 activation domain (pGAD) fusions co-transformed into PJ69-4α (also its rad51∆, rad55∆, csm2∆, shu1∆ and shu2∆ derivatives); growth on SC-L-W-H, 2-3 days, 30 °C
[1] = target: T1, Csm2-KRRR (pGBD csm2-K189A, R190A, R191A, R192A) (S. cerevisiae)
[2] = target: T2, Psy3 (pGBD Psy3) (S. cerevisiae)
[3] = target: T3, Psy3-F15A (pGBD psy3-F15A) (S. cerevisiae)
[4] = target: T4, Psy3-S18A (pGBD psy3-S18A) (S. cerevisiae)
[5] = target: T5, Psy3-T17A (pGBD psy3-T17A) (S. cerevisiae)
[6] = target: T6, Rad55 (pGBD Rad55) (S. cerevisiae)

| Binder | binding [1] | binding [2] | binding [3] | binding [4] | binding [5] | binding [6] |
| --- | --- | --- | --- | --- | --- | --- |
| Orc6 (pGAD ORC6) (protein, UniProt P38826 1-435) MSMQQVQHCVAEVLRLDPQEKPDWSSGYLKKLTNATSILYNTSLNKVMLKQDEEVARCHICAYIASQKMNEKHMPDLCYYIDSIPLEPKKAKHLMNLFRQSLSNSSPMKQFAWTPSPKKNKRSPVKNGGRFTSSDPKELRNQLFGTPTKVRKSQNNDSFVIPELPPMQTNESPSITRRKLAFEEDEDEDEEEPGNDGLSLKSHSNKSITGTRNVDSDEYENHESDPTSEEEPLGVQESRSGRTKQNKAVGKPQSELKTAKALRKRGRIPNSLLVKKYCKMTTEEIIRLCNDFELPREVAYKIVDEYNINASRLVCPWQLVCGLVLNCTFIVFNERRRKDPRIDHFIVSKMCSLMLTSKVDDVIECVKLVKELIIGEKWFRDLQIRYDDFDGIRYDEIIFRKLGSMLQTTNILVTDDQYNIWKKRIEMDLALTEPL | binds | binds | no binding | no binding | no binding | binds weakly |
| Mcm4 (pGAD Mcm4) (protein, UniProt P30665 1-933) MSQQSSSPTKEDNNSSSPVVPNPDSVPPQLSSPALFYSSSSSQGDIYGRNNSQNLSQGEGNIRAAIGSSPLNFPSSSQRQNSDVFQSQGRQGRIRSSASASGRSRYHSDLRSDRALPTSSSSLGRNGQNRVHMRRNDIHTSDLSSPRRIVDFDTRSGVNTLDTSSSSAPPSEASEPLRIIWGTNVSIQECTTNFRNFLMSFKYKFRKILDEREEFINNTTDEELYYIKQLNEMRELGTSNLNLDARNLLAYKQTEDLYHQLLNYPQEVISIMDQTIKDCMVSLIVDNNLDYDLDEIETKFYKVRPYNVGSCKGMRELNPNDIDKLINLKGLVLRSTPVIPDMKVAFFKCNVCDHTMAVEIDRGVIQEPARCERIDCNEPNSMSLIHNRCSFADKQVIKLQETPDFVPDGQTPHSISLCVYDELVDSCRAGDRIEVTGTFRSIPIRANSRQRVLKSLYKTYVDVVHVKKVSDKRLDVDTSTIEQELMQNKVDHNEVEEVRQITDQDLAKIREVAAREDLYSLLARSIAPSIYELEDVKKGILLQLFGGTNKTFTKGGRYRGDINILLCGDPSTSKSQILQYVHKITPRGVYTSGKGSSAVGLTAYITRDVDTKQLVLESGALVLSDGGVCCIDEFDKMSDSTRSVLHEVMEQQTISIAKAGIITTLNARSSILASANPIGSRYNPNLPVTENIDLPPPLLSRFDLVYLVLDKVDEKNDRELAKHLTNLYLEDKPEHISQDDVLPVEFLTMYISYAKEHIHPIITEAAKTELVRAYVGMRKMGDDSRSDEKRITATTRQLESMIRLAEAHAKMKLKNVVELEDVQEAVRLIRSAIKDYATDPKTGKIDMNLVQTGKSVIQRKLQEDLSREIMNVLKDQASDSMSFNELIKQINEHSQDRVESSDIQEALSRLQQEDKVIVLGEGVRRSVRLNNRV | binds | binds | no binding | no binding | no binding | no binding |
